Results published in PubChem BioAssay AID652104 (National Center for Advancing Translational Sciences (NCATS), 2013).
The whole screen tested about 410,000 compounds, of which about 7,200 (1.8%) were called active. The inconclusive results got no clear call from the source; some entries with a clear call stand among them for comparison. The call rests on the fitted dose curve; in most records, active means well fitted activation curve with a large enough effect; inconclusive means small, poorly fitted or top-dose-only effect, or another doubt; inactive means no such curve, though single readings can be large or run the other way. Potencies of inconclusive entries are left out as doubtful fits.

Experiment: qHTS of TDP-43 Inhibitors; further: nearly all actives have a fitted effect of over 50% in size; on growth rescue (activation): % of control where 0% means no effect
Conditions: TDP-43 expressing yeast growth rescue, BacTiter-Glo, 24 h; growth rescue (activation): at 46.1 µM (top of the series) unless noted
In short: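 In this qHTS, compounds that restore growth of yeast expressing TDP-43 appear as activators. Cells (OD600=0.02, galactose medium, raffinose-pregrown) are incubated with compound 24 hr at 30 deg C and growth is quantified by BacTiter-Glo.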
Potency means the concentration at half of the fitted maximal effect; tags describe the fitted curve by direction and shape.

Q: For CC(=O)Oc1c(Cl)c(N2CCOCC2)c(OC(C)=O)c2ccccc12, which Potency is on record?
A: active: 10 µM

Q: With COc1cccc(-c2ccnc3c(-c4ccccc4)c(C)nn23)c1 as the compound, how does the Potency read?
A: inconclusive [activator, single point]

Q: For CCCNC(=O)c1noc2c1CCc1ccccc1-2, which Potency is on record?
A: inconclusive [activator, partial curve]

Q: With COCc1c(C(=O)N2CCN(S(=O)(=O)c3ccccc3Cl)CC2)oc2ccccc12 as the compound, how does the Potency read?
A: active: 11.2 µM

Q: Which Potency does the source give for O=C(Oc1ccccc1)N1CCCCC1 here?
A: inactive

Q: For O=C(O)c1cc2c(s1)CCCC2, which Potency is on record?
A: inconclusive [activator, single point]

Q: Which Potency does the source give for Cc1ccc(-n2nc(N)c3c(=O)oc(N(C)C)nc32)cc1 here?
A: inconclusive [activator, full curve, poor fit]

Q: For CCCCNC(=O)Nc1nc(SCC(=O)OCC)n[nH]1, which Potency is on record?
A: inconclusive [activator, single point]

Q: With COc1ccc(CCC(=O)NCC23CC4CC(CC(C4)C2)C3)cc1 as the compound, how does the Potency read?
A: inconclusive [activator, single point]

Q: Which Potency does the source give for O=C(NC1CCSc2ccccc21)c1cccc([N+](=O)[O-])c1 (configuration not stated) here?
A: active: 12.6 µM

Q: With Cc1cc(C)c2cc(C=O)c(Cl)nc2c1 as the compound, how does the Potency read?
A: inconclusive [activator, single point]

Q: With CCOc1ccc(N(C)S(=O)(=O)c2cc(-c3cc(C)no3)ccc2OC)cc1 as the compound, how does the Potency read?
A: inconclusive [activator, single point]

Q: For CN(C)C1=NC[C@H](Cc2ccccc2)N1CC1CCC(C(C)(C)C)CC1 (some centres not stated), which Potency is on record?
A: inactive

Q: For O=C(O)c1cc([N+](=O)[O-])ccc1NCCc1ccccc1, which Potency is on record?
A: inconclusive [activator, partial curve]

Q: With COC(=O)c1c(NC(=O)COc2ccc(C)cc2Br)sc2c1CCCC2 as the compound, how does the Potency read?
A: inactive

Q: With CN(C(=O)C1Cc2c(-c3ccccc3Oc3ccccc3)ccnc2O1)c1ccccc1 (configuration not stated) as the compound, how does the Potency read?
A: inconclusive [activator, partial curve, poor fit]

Q: Which Potency does the source give for COCCn1c(=O)[nH]c2cc(C(=O)NCc3ccccc3)ccc2c1=O here?
A: inactive

Q: Which Potency does the source give for CC1Cc2ccccc2N1C(=O)COc1ccc2c(c1)OCO2 (configuration not stated) here?
A: inconclusive [activator, partial curve]

Q: With O=C(NCc1cccc(Cl)c1)c1cccc2c(-c3cccnc3)coc12 as the compound, how does the Potency read?
A: active: 17.8 µM

Q: With CC(=O)NC(c1ccccc1)c1nc(-c2ccc(F)c(Cl)c2)cs1 (configuration not stated) as the compound, how does the Potency read?
A: inconclusive [activator, partial curve, poor fit]

Q: For O=C(CSc1nnc(-c2ccccc2)c(-c2ccccc2)n1)NCCc1ccccc1, which Potency is on record?
A: inconclusive [activator, single point]

Q: Which Potency does the source give for Cc1c(CNC2CCC(C)CC2)c(C(=O)O)c(C)n1Cc1ccc(Cl)cc1 (configuration not stated) here?
A: inactive

Q: With Cc1ccc(C(=O)N2CCN3C(=O)c4ccccc4C23c2ccccc2)cc1 (configuration not stated) as the compound, how does the growth rescue (activation) read?
A: inactive: 1.95% [at 9.22 µM]

Q: With Cc1ccc(C)c2nc3sc(C(=O)N4CCOCC4)c(N)c3cc12 as the compound, how does the Potency read?
A: inconclusive [activator, single point]

Q: Which Potency does the source give for CCCC(=O)n1nc(-c2cccnc2)nc1NCc1cccs1 here?
A: inconclusive [activator, partial curve]

Q: For COc1ccccc1N/C(=N/S(=O)(=O)c1ccc(C)cc1)c1ccc(Cl)cc1, which Potency is on record?
A: inconclusive [activator, single point]

Q: For Cc1ccc(CN(C(=O)c2sc3ccccc3c2Cl)C2CCS(=O)(=O)C2)cc1 (configuration not stated), which Potency is on record?
A: inconclusive [activator, partial curve]

Q: With CSCC(=O)NS(=O)(=O)c1ccc(C)cc1 as the compound, how does the Potency read?
A: inconclusive [activator, partial curve, poor fit]

Q: For CC(=O)c1ccc(NC(=O)C(C)n2nc(-c3ccccc3)ccc2=O)cc1 (configuration not stated), which Potency is on record?
A: inconclusive [activator, partial curve]

Q: Which Potency does the source give for CCn1c2ccccc2c2cc(CN3CCN(Cc4ccc(Cl)cc4)CC3)ccc21 here?
A: inactive

Q: For COc1ccc(OCC(=O)Nc2ccccc2-c2ccccc2)cc1, which Potency is on record?
A: inconclusive [activator, single point]

Q: With COC(=O)/C=c1\sc2n(c1=O)C(C)=CC(C)(C)N=2 as the compound, how does the Potency read?
A: inconclusive [activator, single point]

Q: Which Potency does the source give for COc1ccc2c(c1)cc(C(=O)O)n2C here?
A: inconclusive [activator, single point]

Q: With O=C(c1cc([N+](=O)[O-])ccc1Cl)N1CCN(c2ccccn2)CC1 as the compound, how does the Potency read?
A: inactive

Q: Which Potency does the source give for O=C(Nc1ncc(Cc2cccc(Cl)c2)s1)c1cccs1 here?
A: inconclusive [activator, single point]

Q: Which Potency does the source give for CC1CC2(C)CC(C)C1(COC(=O)Nc1ccccc1)CO2 (configuration not stated) here?
A: active: 35.5 µM

Q: Which Potency does the source give for COc1cccc(-c2nnc(SCC(=O)N(C)c3ccccc3)o2)c1 here?
A: inconclusive [activator, single point]

Q: For CC1=CC(=O)C(C(C)=Nc2ccccc2[N+](=O)[O-])C(=O)O1 (configuration not stated), which Potency is on record?
A: inactive

Q: For Cc1cccc(Nc2ncnc(N)n2)c1, which Potency is on record?
A: inconclusive [activator, partial curve]

Q: For Cc1cc(S(=O)(=O)NCCCN2CCOCC2)c(C)cc1Cl, which Potency is on record?
A: inactive

Q: For Cc1ccc([C@@H]2C[C@H]3[C@@H](CN2S(=O)(=O)c2ccc(Cl)cc2)C(=O)C[C@@H](c2cccc4ccccc24)N3S(=O)(=O)c2ccc(C)cc2)cc1, which Potency is on record?
A: inconclusive [activator, partial curve, poor fit]

Q: With CCCN(C(=O)Cc1nc(-c2ccc(OC)cc2)no1)c1ccccc1C as the compound, how does the Potency read?
A: inactive

Q: For CCOC(=O)c1[nH]c(C)c(CCC(=O)Nc2ccccc2OCC)c1C, which growth rescue (activation) is on record?
A: inactive: 14.8% [at 9.22 µM]

Q: For O=C(/C=C/c1ccccc1)/C=C/c1ccccc1, which Potency is on record?
A: inconclusive [activator, partial curve]

Q: With Cc1sc2ncnc(Sc3ccccc3C(=O)Nc3ccc(Br)cc3)c2c1C as the compound, how does the Potency read?
A: inactive

Q: For COc1ccc(CC(=O)N2CCCC2)c(OC)c1, which Potency is on record?
A: inactive

Q: With COc1ccc(CNC(=O)C[C@H]2C[C@H](C(=O)N(C(C)C)C(C)C)[C@@]3(C)c4[nH]c5cc(-c6ccco6)ccc5c4CCN3C2=O)cc1OC as the compound, how does the Potency read?
A: inconclusive [activator, single point]
